Binding data for four molecules are collected here from article PMC3841200.

No constants are given. Whether binding was seen depends on the method and setting. For part of these data: Binding seen in cells or lysates may run through a third protein. Some entries that bind do so weakly or less than the wild type. Tags and fused reporters may be left off the sequences shown.

The target in assay [1] is T1, NLUC-RCF3 (Arabidopsis thaliana) (UniProt Q8W4B1).
T1 sequence: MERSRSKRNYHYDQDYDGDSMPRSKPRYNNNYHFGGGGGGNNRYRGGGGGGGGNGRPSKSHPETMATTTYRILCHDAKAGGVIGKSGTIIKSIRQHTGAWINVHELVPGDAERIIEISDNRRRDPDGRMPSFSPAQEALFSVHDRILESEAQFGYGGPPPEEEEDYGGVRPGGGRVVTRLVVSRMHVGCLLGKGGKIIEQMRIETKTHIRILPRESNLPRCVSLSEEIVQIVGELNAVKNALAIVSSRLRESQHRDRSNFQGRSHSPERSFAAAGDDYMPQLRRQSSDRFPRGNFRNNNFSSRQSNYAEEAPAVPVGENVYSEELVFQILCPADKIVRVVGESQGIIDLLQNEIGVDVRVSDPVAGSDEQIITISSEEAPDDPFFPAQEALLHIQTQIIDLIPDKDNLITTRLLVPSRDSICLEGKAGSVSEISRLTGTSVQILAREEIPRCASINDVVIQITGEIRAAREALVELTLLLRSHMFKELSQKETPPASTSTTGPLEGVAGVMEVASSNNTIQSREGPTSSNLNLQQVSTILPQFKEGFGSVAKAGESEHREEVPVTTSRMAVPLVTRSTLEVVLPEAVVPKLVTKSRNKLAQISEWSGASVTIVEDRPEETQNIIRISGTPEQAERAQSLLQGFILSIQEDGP
Put plainly: split reporter; luciferase complementation imaging (LuCI); NLUC and CLUC fusions co-expressed with P19 in Nicotiana benthamiana leaves by Agrobacterium infiltration; luminescence 3 d after infiltration.

The target of assay [2] is T2, CLUC-CPL1 (Arabidopsis thaliana) (UniProt Q5YDB6).
T2 sequence: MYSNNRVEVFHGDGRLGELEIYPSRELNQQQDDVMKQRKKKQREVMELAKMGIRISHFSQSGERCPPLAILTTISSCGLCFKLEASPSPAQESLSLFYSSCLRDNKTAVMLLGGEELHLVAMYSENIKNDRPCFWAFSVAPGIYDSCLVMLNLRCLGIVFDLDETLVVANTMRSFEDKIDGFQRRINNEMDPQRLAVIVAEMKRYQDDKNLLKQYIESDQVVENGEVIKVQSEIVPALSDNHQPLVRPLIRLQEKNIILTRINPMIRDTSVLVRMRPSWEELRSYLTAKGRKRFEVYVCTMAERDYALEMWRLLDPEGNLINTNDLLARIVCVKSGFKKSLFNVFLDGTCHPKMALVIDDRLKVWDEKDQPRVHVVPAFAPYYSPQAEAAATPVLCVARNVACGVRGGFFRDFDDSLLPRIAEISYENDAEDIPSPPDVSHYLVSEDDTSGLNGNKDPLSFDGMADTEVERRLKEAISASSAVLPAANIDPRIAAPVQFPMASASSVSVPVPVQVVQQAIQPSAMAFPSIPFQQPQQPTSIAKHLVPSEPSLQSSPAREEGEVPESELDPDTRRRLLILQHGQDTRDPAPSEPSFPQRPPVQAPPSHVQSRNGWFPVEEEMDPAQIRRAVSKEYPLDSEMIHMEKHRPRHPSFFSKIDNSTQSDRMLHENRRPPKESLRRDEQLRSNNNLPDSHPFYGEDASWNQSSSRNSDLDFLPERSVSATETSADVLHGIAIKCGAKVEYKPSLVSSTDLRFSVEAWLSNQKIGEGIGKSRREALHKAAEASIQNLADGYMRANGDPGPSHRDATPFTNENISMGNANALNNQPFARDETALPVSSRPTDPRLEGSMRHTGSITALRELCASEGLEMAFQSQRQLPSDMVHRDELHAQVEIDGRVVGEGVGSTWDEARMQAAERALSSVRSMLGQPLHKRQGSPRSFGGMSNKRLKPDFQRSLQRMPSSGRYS
Described as above.

Assay [3] concerns the target T3, RCF3-nYFP (Arabidopsis thaliana) (UniProt Q8W4B1).
T3 sequence: T1 sequence
Put plainly: split reporter; BiFC; nYFP and cYFP fusions co-expressed in Arabidopsis mesophyll protoplasts; YFP fluorescence one day after transformation.

For assay [4], the target named is T4, CLUC-CPL1^699–967 (Arabidopsis thaliana) (UniProt Q5YDB6).
T4 sequence: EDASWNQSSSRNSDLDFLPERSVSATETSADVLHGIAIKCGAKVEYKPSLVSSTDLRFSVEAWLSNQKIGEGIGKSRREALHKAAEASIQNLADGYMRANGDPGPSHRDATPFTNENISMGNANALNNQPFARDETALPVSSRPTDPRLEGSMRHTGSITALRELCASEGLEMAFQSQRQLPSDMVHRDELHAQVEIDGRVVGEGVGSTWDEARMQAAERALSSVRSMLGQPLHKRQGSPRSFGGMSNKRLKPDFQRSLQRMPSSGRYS
Put plainly: split reporter; luciferase complementation imaging (LuCI); NLUC and CLUC fusions co-expressed with P19 in Nicotiana benthamiana leaves by Agrobacterium infiltration; luminescence 3 d after infiltration.

In assay [5] the target is T5, CLUC-CPL1^1–714 (Arabidopsis thaliana) (UniProt Q5YDB6).
T5 sequence: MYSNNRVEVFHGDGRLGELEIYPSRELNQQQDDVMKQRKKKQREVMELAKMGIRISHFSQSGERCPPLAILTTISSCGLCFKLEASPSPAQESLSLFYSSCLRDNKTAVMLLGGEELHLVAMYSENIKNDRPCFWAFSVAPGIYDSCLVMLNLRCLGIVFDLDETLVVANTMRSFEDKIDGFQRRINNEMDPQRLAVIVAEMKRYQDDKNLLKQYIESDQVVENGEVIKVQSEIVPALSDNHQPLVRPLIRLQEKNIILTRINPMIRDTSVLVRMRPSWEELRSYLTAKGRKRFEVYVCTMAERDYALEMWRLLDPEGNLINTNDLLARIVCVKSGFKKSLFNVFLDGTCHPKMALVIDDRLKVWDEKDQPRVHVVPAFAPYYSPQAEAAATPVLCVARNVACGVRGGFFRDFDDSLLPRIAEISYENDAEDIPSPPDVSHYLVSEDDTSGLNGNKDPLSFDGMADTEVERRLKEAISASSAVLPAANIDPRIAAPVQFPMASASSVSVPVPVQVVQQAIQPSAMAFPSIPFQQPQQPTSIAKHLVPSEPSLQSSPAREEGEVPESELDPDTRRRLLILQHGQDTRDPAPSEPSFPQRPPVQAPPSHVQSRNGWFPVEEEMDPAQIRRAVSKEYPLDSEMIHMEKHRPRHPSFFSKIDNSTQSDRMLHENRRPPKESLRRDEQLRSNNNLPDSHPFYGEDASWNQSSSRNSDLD
The assay is described as above.

The target of assay [6] is T6, GAL4 DNA-binding domain fused with full-length CPL1 (BD:CPL1) (Arabidopsis thaliana) (UniProt Q5YDB6).
T6 sequence: T2 sequence
Nature of the assay: two-hybrid; yeast PJ69-4A; GAL4-BD (pBUTE^GW) and GAL4-AD (pGAD^GW) fusions, both orientations; growth on SD -ULHA with X-alpha-gal, 28°C, 48 h.

Assay [7] addresses T7, GAL4 DNA-binding domain fused with CPL2 dsRBM (BD:C2^602–770) (Arabidopsis thaliana) (UniProt Q5YDB5).
T7 sequence: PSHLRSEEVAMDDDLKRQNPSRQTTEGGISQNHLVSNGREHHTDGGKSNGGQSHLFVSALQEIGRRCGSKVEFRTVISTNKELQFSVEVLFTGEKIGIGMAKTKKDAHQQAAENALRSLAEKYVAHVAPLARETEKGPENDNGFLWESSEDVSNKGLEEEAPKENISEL
The description is as above.

For assay [8], the target named is T8, GAL4 DNA-binding domain fused with CPL1^699–967 (BD:C1D) (Arabidopsis thaliana) (UniProt Q5YDB6).
T8 sequence: T4 sequence
The assay is described as above.

B1: LUC fragments fused to MYB75 (LuCI negative control) (protein, UniProt Q9FE25 1-248)
chain: MEGSSKGLRKGAWTTEEDSLLRQCINKYGEGKWHQVPVRAGLNRCRKSCRLRWLNYLKPSIKRGKLSSDEVDLLLRLHRLLGNRWSLIAGRLPGRTANDVKNYWNTHLSKKHEPCCKIKMKKRDITPIPTTPALKNNVYKPRPRSFTVNNDCNHLNAPPKVDVNPPCLGLNINNVCDNSIIYNKDKKKDQLVNNLIDGDNMWLEKFLEESQEVDILVPEATTTEKGDTLAFDVDQLWSLFDGETVKFD
On to B1, for which the binding entry in assay [1] and in assay [2] was “no binding” throughout.

B2: MYB75-cYFP (protein, UniProt Q9FE25 1-248)
chain: B1 chain
As to B2, the binding result in assay [3] was “no binding”.

B3: NLUC-RCF3 (protein, UniProt Q8W4B1 1-652)
chain: T1 sequence
Consider B3, for which the binding entry in assay [4] is recorded as “binds”; in assay [5], “no binding”; in assay [2], “binds”.

B4: GAL4 activation domain fused with RCF3 (AD:RCF3) (protein, UniProt Q8W4B1 1-652)
chain: T1 sequence
Turning to B4, the binding entry in assay [6] was “binds”; in assay [7], “no binding”; in assay [8] it was “binds”.
